Measured values taken from US20130184251A1, “HETEROAROMATIC AND AROMATIC PIPERAZINYL AZETIDINYL AMIDES AS MONOACYLGLYCEROL LIPASE INHIBITORS” (Janssen Pharmaceutica, NV, priority 2009, published 2013).

Assays:
[1] = biological target: T1, purified mutant MGL (mut-MGLL 11-313 L179S L186S) (Homo sapiens, UniProt Q99685, L169S/L176S); test: biochemical; settings: Ex. 3 (mutant) IC50, mutant MGL (mut-MGLL 11-313 L179S L186S)
T1 sequence (Q99685 1-303 L169S/L176S): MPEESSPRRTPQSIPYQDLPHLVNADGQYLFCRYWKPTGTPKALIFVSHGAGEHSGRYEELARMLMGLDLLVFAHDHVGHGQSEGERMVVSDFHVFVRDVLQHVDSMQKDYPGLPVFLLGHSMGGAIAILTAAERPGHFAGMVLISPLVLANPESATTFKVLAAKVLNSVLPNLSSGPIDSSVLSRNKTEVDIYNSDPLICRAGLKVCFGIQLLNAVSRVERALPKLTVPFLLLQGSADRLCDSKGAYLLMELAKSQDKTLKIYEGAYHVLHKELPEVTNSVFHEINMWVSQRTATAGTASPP

[2] = biological target: T1, purified mutant MGL (mut-MGLL 11-313 L179S L186S); test: biochemical; settings: Ex. 4 Kd, ThermoFluor

SMILES | IC50 [1] [µM] | Kd [2]
N#Cc1cccnc1N1CCN(C2CN(C(=O)c3ccc(C4CCCCC4)cc3)C2)CC1 [Compound #21, 2-(4-{1-[(4-Cyclohexylphenyl)carbonyl]azetidin-3-yl}piperazin-1-yl)pyridine-3-carbonitrile] | 0.024 | 0.025 µM
COc1ccc(-c2ccc(C(=O)N3CC(N4CCN(c5ncccn5)CC4)C3)cc2)cc1 [compound 5, 2-(4-{1-[(4′-Methoxybiphenyl-4-yl)carbonyl]azetidin-3-yl}piperazin-1-yl)pyrimidine] | 0.007 | 0.05 µM
O=C(c1cccc(Oc2ccccc2)c1)N1CC(N2CCN(c3ccccn3)CC2)C1 [compound 47, 1-{1-[(3-Phenoxyphenyl)carbonyl]azetidin-3-yl}-4-pyridin-2-ylpiperazine] | 0.16 | 1.02 µM
O=C(c1ccc2c(c1)CCCN2c1ccc(C(F)(F)F)cc1)N1CC(N2CCN(c3ccc(C(F)(F)F)cc3)CC2)C1 [compound 134, 1-[4-(Trifluoromethyl)phenyl]-6-[(3-(4-[4-(trifluoromethyl)phenyl]piperazin-1-yl}azetidin-1-yl)carbonyl]-1,2,3,4-tetrahydroquinoline] | 4.29 | > 31.2 µM
CCN(CC)c1ccc(C(=O)N2CC(N3CCN(c4ccccn4)CC3)C2)cc1 [compound 37, N,N-Diethyl-4-{[3-(4-pyridin-2-ylpiperazin-1-yl)azetidin-1-yl]carbonyl}aniline] | 0.062 | 0.044 µM
O=C(c1ccc(C2CCCCC2)cc1)N1CC(N2CCN(c3ncncn3)CC2)C1 [compound 32, 2-(4-{1-[(4-Cyclohexylphenyl)carbonyl]azetidin-3-yl}piperazin-1-yl)-1,3,5-triazine] | 0.051 | 0.029 µM
O=C(c1ccc(C2CCCCC2)cc1)N1CC(N2CCN(c3nc4ccccc4o3)CC2)C1 [compound 66, 2-(4-{1-[(4-Cyclohexylphenyl)carbonyl]azetidin-3-yl}piperazin-1-yl)-1,3-benzoxazole] | 0.614 | 1.28 µM
CCCCCC12CCC(C(=O)N3CC(N4CCN(c5ccccn5)CC4)C3)(CC1)CC2 [compound 128, 1-{1-[(4-Pentylbicyclo[2.2.2]oct-1-yl)carbonyl]azetidin-3-yl}-4-pyridin-2-ylpiperazine] |  | 20 µM
O=C(c1ccc(-c2cccc(C(F)(F)F)c2)cc1)N1CC(N2CCN(c3ncccn3)CC2)C1 [compound 4, 2-[4-(1-{[3′-(Trifluoromethyl)biphenyl-4-yl]carbonyl}azetidin-3-yl)piperazin-1-yl]pyrimidine] | 0.006 | 0.002 µM
COc1ccc2cc(C(=O)N3CC(N4CCN(c5ccccn5)CC4)C3)ccc2c1 [compound 57, 1-{1-[(6-Methoxynaphth-2-yl)carbonyl]azetidin-3-yl}-4-pyridin-2-ylpiperazine] | 0.291 | 0.577 µM
Cc1c(C(=O)N2CC(N3CCN(c4ccccn4)CC3)C2)oc2ccccc12 [compound 117, 1-{1-[(3-Methyl-1-benzofuran-2-yl)carbonyl]azetidin-3-yl}-4-pyridin-2-ylpiperazine] | 10.7 | 18.2 µM
CC(C)(C)C1CCC(C(=O)N2CC(N3CCN(c4ccccn4)CC3)C2)CC1 (stereo not shown) [compound 78, 1-{1-[(4-tert-Butylcyclohexyl)carbonyl]azetidin-3-yl}-4-pyridin-2-ylpiperazine] | 1.47 | 4.58 µM
O=C(c1ccc(Cc2ccccc2)cc1)N1CCN(C2CN(c3ncccn3)C2)CC1 [compound 131, 2-(3-(4-[(4-Benzylphenyl)carbonyl]piperazin-1-yl}azetidin-1-yl)pyrimidine] | 0.628 | 0.34 µM
O=C(c1ccc(-n2cccc2)cc1)N1CC(N2CCN(c3ncccn3)CC2)C1 [compound 25, 2-[4-(1-{[4-(1H-Pyrrol-1-yl)phenyl]carbonyl}azetidin-3-yl)piperazin-1-yl]pyrimidine] | 0.032 | 0.059 µM
O=C(c1ccc(-c2cccc(C(F)(F)F)c2)o1)N1CC(N2CCN(c3ccccn3)CC2)C1 [compound 80, 1-Pyridin-2-yl-4-[1-({5-[3-(trifluoromethyl)phenyl]furan-2-yl}carbonyl)azetidin-3-yl]piperazine] | 1.75 | 12.5 µM
O=C(c1ccc(NCc2ccccc2I)cc1)N1CC(N2CCN(c3ncccn3)CC2)C1 [compound 7, N-(2-Iodobenzyl)-4-{[3-(4-pyrimidin-2-ylpiperazin-1-yl)azetidin-1-yl]carbonyl}aniline] | 0.009 | 0.002 µM
O=C(c1ccc(C2CCCCC2)cc1)N1CC(N2CCN(c3nccs3)CC2)C1 [compound 6, 1-{1-[(4-Cyclohexylphenyl)carbonyl]azetidin-3-yl}-4-(1,3-thiazol-2-yl)piperazine] | 0.008 | 0.014 µM
O=C(c1ccc2c(c1)CCCN2)N1CC(N2CCN(c3ccccn3)CC2)C1 [compound 97, 6-{[3-(4-Pyridin-2-ylpiperazin-1-yl)azetidin-1-yl]carbonyl}-1,2,3,4-tetrahydroquinoline] | 5.88 | 3.57 µM
Cc1ccnc(N2CCN(C3CN(C(=O)c4ccc(-c5ccccc5)cc4)C3)CC2)c1 [compound 102, 1-[1-(Biphenyl-4-ylcarbonyl)azetidin-3-yl]-4-(4-methylpyridin-2-yl)piperazine] | 6.59 | 1.3 µM
O=C(c1ccc(-c2ccccc2)c(F)c1)N1CC(N2CCN(c3ccccn3)CC2)C1 [compound 60, 1-{1-[(2-Fluorobiphenyl-4-yl)carbonyl]azetidin-3-yl}-4-pyridin-2-ylpiperazine] | 0.45 | 0.313 µM
O=C(c1ccc(-c2ccccc2)cc1)N1CC(N2CCN(c3ncccn3)CC2)C1 [Compound #12, Biphenyl-4-yl-[3-(4-pyrimidin-2-yl-piperazin-1-yl)-azetidin-1-yl]-methanone] |  | 0.014 µM and 0.025 µM
O=C(c1cc2ccc(C(F)(F)F)cc2s1)N1CC(N2CCN(c3ncccn3)CC2)C1 [Compound #139, (6-Trifluoromethyl-benzo[b]thien-2-yl)-[3-(4-pyrimidin-2-yl-piperazin-1-yl)-azetidin-1-yl]-methanone] |  | 0.025 µM
O=C(c1ccc(Oc2cc(Cl)cc(Cl)c2)o1)N1CC(N2CCN(c3ccccn3)CC2)C1 [compound 129, 1-(1-{[5-(3,5-Dichlorophenoxy)furan-2-yl]carbonyl}azetidin-3-yl)-4-pyridin-2-ylpiperazine] |  | 9.81 µM

Further lines, results first:

IC50 [1] [µM] | Kd [2] | SMILES
0.104 | 0.4 µM | O=C(c1ccc(Cl)c(I)c1)N1CC(N2CCN(c3ncccn3)CC2)C1 [compound 43, 2-(4-{1-[(4-Chloro-3-iodophenyl)carbonyl]azetidin-3-yl}piperazin-1-yl)pyrimidine]
0.055 | 0.027 µM | O=C(c1ccc(C2CCCCC2)cc1)N1CC(N2CCN(c3noc4ccccc34)CC2)C1 [compound 33, 3-(4-{1-[(4-Cyclohexylphenyl)carbonyl]azetidin-3-yl}piperazin-1-yl)-1,2-benzisoxazole]
0.14 | 0.244 µM | O=C(c1ccc(Oc2ccccc2)cc1)N1CC(N2CCN(c3ccccn3)CC2)C1 [compound 45, 1-{1-[(4-Phenoxyphenyl)carbonyl]azetidin-3-yl}-4-pyridin-2-ylpiperazine]
5.11 | 2.86 µM | N#Cc1ccc(N2CCN(C3CN(C(=O)c4ccc(C5CCCCC5)cc4)C3)CC2)nc1 [compound 93, 6-(4-{1-[(4-Cyclohexylphenyl)carbonyl]azetidin-3-yl}piperazin-1-yl)pyridine-3-carbonitrile]
0.078 | 0.451 µM | CN(CC1CCCCC1)c1ccc(CCC(=O)N2CC(N3CCN(c4ccccn4)CC3)C2)cc1 [compound 40, N-(Cyclohexylmethyl)-N-methyl-4-{3-oxo-3-[3-(4-pyridin-2-ylpiperazin-1-yl)azetidin-1-yl]propyl}aniline]
0.549 | 0.488 µM | CC(C)c1ccc(/C=C/C(=O)N2CC(N3CCN(c4ccccn4)CC3)C2)cc1 [compound 65, 1-(1-{(2E)-3-[4-(1-Methylethyl)phenyl]prop-2-enoyl}azetidin-3-yl)-4-pyridin-2-ylpiperazine]
0.048 | 0.042 µM | CCCn1ccc2cc(C(=O)N3CC(N4CCN(c5ccccn5)CC4)C3)ccc21 [compound 31, 1-Propyl-5-{[3-(4-pyridin-2-ylpiperazin-1-yl)azetidin-1-yl]carbonyl}-1H-indole]
0.162 | 0.435 µM | Cc1ccc(C(=O)N2CC(N3CCN(c4ncccn4)CC3)C2)cc1I [compound 48, 2-(4-{1-[(3-Iodo-4-methylphenyl)carbonyl]azetidin-3-yl}piperazin-1-yl)pyrimidine]
0.2 | 1.9 µM | O=C(c1cccc(-c2ccc(F)cc2)c1)N1CC(N2CCN(c3ccccn3)CC2)C1 [compound 52, 1-{1-[(4′-Fluorobiphenyl-3-yl)carbonyl]azetidin-3-yl}-4-pyridin-2-ylpiperazine]
0.127 | 0.556 µM | CCC(C)(C)c1ccc(C(=O)N2CC(N3CCN(c4ccccn4)CC3)C2)cc1 [compound 44, 1-(1-{[4-(1,1-Dimethylpropyl)phenyl]carbonyl}azetidin-3-yl)-4-pyridin-2-ylpiperazine]
0.063 | 0.192 µM | COc1ccc(C(=O)N2CC(N3CCN(c4ncccn4)CC3)C2)cc1I [compound 38, 2-(4-{1-[(3-Iodo-4-methoxyphenyl)carbonyl]azetidin-3-yl}piperazin-1-yl)pyrimidine]

Values joined by “and” are separate entries in the source; they are usually repeats but may differ in a detail not shown here. Equal entries are not always repeated.
